The other results are listed elsewhere or left out. Further columns of the screen follow, without active or inactive calls.

Experimental findings from PubChem BioAssay AID1745853 (National Center for Advancing Translational Sciences (NCATS), 2022) are described below.

Assay in all cases: Primary Screen for Target Class Profiling of Small Molecule Inhibitors of Methyltransferases
The target in experiment [1] is Glycine N-methyltransferase (Homo sapiens) (UniProt Q14749). Particulars: purified enzyme, MTase-Glo SAH luminescence; measured here: GNMT inhibition; at 40 µM; stronger effect = lower value. The gist of the method:
(§1)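 Each enzyme was reacted with SAM and its substrate, with compounds tested once at 40 uM; SAH formed was read by MTase-Glo luminescence.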

Experiment [2] addresses Guanidinoacetate N-methyltransferase (Homo sapiens) (UniProt Q14353). Particulars: purified enzyme, MTase-Glo SAH luminescence; measured here: GAMT inhibition; at 40 µM; stronger effect = lower value. Summed up: as §1
For experiment [3], the target named is Histamine N-methyltransferase (Homo sapiens) (UniProt P50135). Particulars: purified enzyme, MTase-Glo SAH luminescence; measured here: HNMT inhibition; at 40 µM; stronger effect = lower value. Summed up:
as §1

The target in experiment [4] is Nicotinamide N-methyltransferase (Homo sapiens) (UniProt P40261). Particulars: purified enzyme, MTase-Glo SAH luminescence; measured here: NNMT inhibition; at 40 µM; stronger effect = lower value. The gist of the method: as §1
Experiment [5] has as its target Phenylethanolamine N-methyltransferase (Homo sapiens) (UniProt P11086). Particulars: purified enzyme, MTase-Glo SAH luminescence; measured here: PNMT inhibition; at 40 µM; stronger effect = lower value. Summed up:
as §1
% is set by controls: 0 for no effect and ±100 for the full control effect.

Turning to `CCc1ccc(CN2C(=O)c3cc(-c4ccccc4)nn3CC2(C)C(=O)NCc2ccccc2)cc1` (stereo not given), the activity change, negative = inhibition is -3.44% in experiment [1]; 1.23% in experiment [2]; -4.06% in experiment [3]; -3.99% in experiment [4]; -6.82% in experiment [5].

As for `O=C(COc1ccccc1)N1C[C@@H]2C[C@H](C1)c1c(NS(=O)(=O)c3ccccc3)ccc(=O)n1C2`, the activity change, negative = inhibition was -5.74% in experiment [1]; -8.86% in experiment [2]; -2.61% in experiment [3]; -12.5% in experiment [4]; -7.53% in experiment [5].

With `Cc1c(OCC(=O)OCc2ccccc2)ccc2c(-c3ccccc3)cc(=O)oc12`, the activity change, negative = inhibition in experiment [1] is -2.38%; in experiment [2], 0.894%; in experiment [3], 7.25%; in experiment [4], 5.92%; in experiment [5], -1.16%.

Consider `C/C1=C\[C@H]2OC(=O)[C@@H](C)[C@@H]2CC/C(C(=O)O)=C/CC1`, for which the activity change, negative = inhibition was -8.67% in experiment [1]; -9.99% in experiment [2]; -21.5% in experiment [3]; -18% in experiment [4]; -2.13% in experiment [5].

Turning to `CN(C)CCN1C(=O)c2cc3occc3n2CC1(C)C(=O)NC1CCCCCC1` (stereo not given), the activity change, negative = inhibition was -0.242% in experiment [1]; 1.95% in experiment [2]; 2.38% in experiment [3]; 1.52% in experiment [4]; -1.96% in experiment [5].

Take `CCOc1ccc(CN2C(=O)c3cc(-c4ccccc4)nn3CC2(C)C(=O)NCc2ccccc2)cc1` (stereo not given): the activity change, negative = inhibition was 2.34% in experiment [1]; 1.01% in experiment [2]; 4.58% in experiment [3]; -3.8% in experiment [4]; -3.98% in experiment [5].

As to `O=c1[nH]c(=O)n([C@H]2C[C@H](O)[C@@H](CO)O2)cc1Br`, the activity change, negative = inhibition in experiment [1] is -4%; in experiment [2] it was 3.58%; in experiment [3], -3.62%; in experiment [4], -9.73%; in experiment [5], 2.26%.

Turning to `COc1ccc(CCN2C(=O)c3cc4ccccc4n3CC2(C)C(=O)NCCC(C)C)cc1OC` (stereo not given), the activity change, negative = inhibition in experiment [1] was 3.97%; in experiment [2], 1.24%; in experiment [3] it was 5%; in experiment [4], -11.2%; in experiment [5], 2.94%.

For `CN1C(=O)CO[C@H]2CN(Cc3c[nH]c4ccccc34)C[C@H]21`, the activity change, negative = inhibition in experiment [1] was -6.39%; in experiment [2], -14.5%; in experiment [3], -6.38%; in experiment [4], -22.5%; in experiment [5], -17.2%.

Turning to `CC(=O)NC(CCC(=O)O)C(=O)NCCc1ccc(O)cc1` (stereo not given), the activity change, negative = inhibition in experiment [1] was 1.03%; in experiment [2] it was 8%; in experiment [3], -3.62%; in experiment [4], -5.08%; in experiment [5] it was 4.34%.

Consider `COc1ccc(CCNC(=O)c2cc3n(n2)CC(C)(C(=O)NCc2ccccc2)N(C)C3=O)c(OC)c1` (stereo not given), for which the activity change, negative = inhibition in experiment [1] was 1.1%; in experiment [2] it was 1.35%; in experiment [3] it was 2.18%; in experiment [4], 0.663%; in experiment [5], 0.245%.

Regarding `O=C(COc1ccccc1)N1CCC(c2n[nH]c(=O)n2Cc2ccc(F)cc2)CC1`, the activity change, negative = inhibition in experiment [1] was -1.86%; in experiment [2] it was 0.215%; in experiment [3] it was -3.25%; in experiment [4], -2.84%; in experiment [5], 0.628%.

For `Cc1ccc(NC(=O)CSc2nnc3n(C)c(=O)c4ccc(C(=O)NC5CCCC5)cc4n23)cc1`, the activity change, negative = inhibition was -1.6% in experiment [1]; 2.17% in experiment [2]; 1.53% in experiment [3]; -1.04% in experiment [4]; 2.48% in experiment [5].

As for `COCC1CN(C)CC12CCN(C(=O)c1cc3ccccc3[nH]1)CC2` (stereo not given), the activity change, negative = inhibition in experiment [1] is -5.47%; in experiment [2], 1.93%; in experiment [3], -17.7%; in experiment [4] it was -6.83%; in experiment [5] it was 10%.

`O=S(=O)(c1ccc(F)cc1)N1CCC(n2cnnc2-c2ccccc2)CC1`: the activity change, negative = inhibition in experiment [1] amounted to 1.48%; in experiment [2] it was 0%; in experiment [3], 13%; in experiment [4], 4.49%; in experiment [5], 5.88%.

As for `COCC[C@]1(O)CCN(C(=O)CCCc2ccccc2)C[C@H]1C`, the activity change, negative = inhibition is -1.13% in experiment [1]; 1.84% in experiment [2]; 1.01% in experiment [3]; 5.12% in experiment [4]; 12% in experiment [5].

Regarding `Nc1cccc(CNC(=O)c2ccc(Oc3ccc(OCc4cccc(F)c4)cc3)nc2)c1`, the activity change, negative = inhibition was -0.923% in experiment [1]; -14.8% in experiment [2]; -2.25% in experiment [3]; -32.5% in experiment [4]; -15% in experiment [5].

In the case of `Cc1cccc(N2C(=O)c3cc4sccc4n3CC2(C)C(=O)NC2CCCC(C)C2C)c1C` (stereo not given), the activity change, negative = inhibition is 0.824% in experiment [1]; -6.7% in experiment [2]; 2.99% in experiment [3]; 3% in experiment [4]; 1.41% in experiment [5].

On to `CC1OC(OC2CCC3(C)C(CCC4(C)C3C=CC35OCC6(CCC(C)(C)CC63)CCC45C)C2(C)CO)C(OC2OC(CO)C(O)C(O)C2O)C(O)C1OC1OC(CO)C(O)C(O)C1O` (stereo not given), for which the activity change, negative = inhibition in experiment [1] was 2.26%; in experiment [2], 4.27%; in experiment [3], 5.71%; in experiment [4] it was -4.93%; in experiment [5], 1.52%.

Consider `CCc1nc2c(=O)n(CC(=O)NCc3ccco3)nc(C)c2s1`, for which the activity change, negative = inhibition is -3.37% in experiment [1]; -5.38% in experiment [2]; -1.08% in experiment [3]; -3.24% in experiment [4]; -3.29% in experiment [5].

For `CC(=O)Nc1c2n(c3ccc(F)cc13)CC(C)(C(=O)NC1CCCC1)N(C1CCCCC1)C2=O` (stereo not given), the activity change, negative = inhibition in experiment [1] is -4.18%; in experiment [2], 0%; in experiment [3], 2.02%; in experiment [4], -12%; in experiment [5], -2.18%.

Regarding `COc1cccc(-c2ccc(C(=O)NCCNC(=O)Cc3ccc(F)cc3)cc2)c1`, the activity change, negative = inhibition is -6.18% in experiment [1]; -4.75% in experiment [2]; -3.36% in experiment [3]; -8.44% in experiment [4]; -24.3% in experiment [5].

Take `CCNC(=O)[C@@H]1C[C@H](NC(C)=O)CN1C1CCN(c2ccc(C)cc2)CC1`: the activity change, negative = inhibition in experiment [1] is -10.2%; in experiment [2], -8.29%; in experiment [3] it was -5.9%; in experiment [4], -12.2%; in experiment [5], -2.17%.

Turning to `Cc1ccc([N+](=O)[O-])cc1S(=O)(=O)N(C)/N=C/c1cnc2ccc(Br)cn12`, the activity change, negative = inhibition in experiment [1] is -16.6%; in experiment [2], -9.4%; in experiment [3], -9.32%; in experiment [4], -62.8%; in experiment [5] it was -15.7%.

With `CC1(C)C[C@H](NC2CCC2)[C@@]2(CCC(=O)NCc3cccnc3)CC[C@](C)(O)C[C@@H]12`, the activity change, negative = inhibition in experiment [1] is -0.706%; in experiment [2] it was -1.75%; in experiment [3], -11.3%; in experiment [4], -5.69%; in experiment [5] it was -2.87%.

Regarding `CC(C)CCNC(=O)C1(C)Cn2nc(C(=O)NCc3ccccc3F)cc2C(=O)N1C` (stereo not given), the activity change, negative = inhibition stood at 1.04% in experiment [1]; 4.36% in experiment [2]; 4.24% in experiment [3]; 2.8% in experiment [4]; 0.396% in experiment [5].

As to `CCN1CCN(C(=O)c2cc(-c3ccccc3)cn2C)CC1`, the activity change, negative = inhibition in experiment [1] was -7.16%; in experiment [2], -8.95%; in experiment [3], -4.64%; in experiment [4], -11.7%; in experiment [5], -6.82%.

With `CCOCCCNC(=O)C1c2c(n(C)c3ccccc23)SCC(=O)N1CCc1ccsc1` (stereo not given), the activity change, negative = inhibition in experiment [1] is 4%; in experiment [2], 1.52%; in experiment [3], -3.73%; in experiment [4] it was -0.57%; in experiment [5], 2.04%.

As to `C=C1C(=O)OC2/C=C(\CO)CC/C=C(\C=O)C(OC)C(OC(=O)C(C)CC)C12` (stereo not given), the activity change, negative = inhibition is 3.71% in experiment [1]; 7.72% in experiment [2]; 3.03% in experiment [3]; -4.72% in experiment [4]; 6.48% in experiment [5].
